# In all, about 39,000 compounds went through this assay and about 220 (0.56%) showed activity. Some of the results follow.
# System: Escherichia coli K-12 BW25113
# Assay: relative growth (OD600 normalised to plate interquartile mean) (fraction); higher = less growth inhibition, active = 0.2 or less
# Details: 50 µM; LB; incubation time: overnight (16-24 h)
# 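Note: static incubation at 37 °C against the wild-type strain, values averaged over two biological replicates.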
row,Compound,relative growth
1,C[C@@H]1CN([C@H](C)CO)C(=O)Cc2cc(NS(=O)(=O)c3ccccc3)ccc2O[C@@H]1CN(C)S(=O)(=O)c1ccc(F)cc1,inactive: 0.921
2,COc1ccc(CN(C)C[C@H]2OCCCC[C@@H](C)Oc3ccc(NC(=O)Nc4ccccc4)cc3C(=O)N([C@@H](C)CO)C[C@H]2C)cc1,inactive: 0.969
3,NCC[C@@H]1CC[C@@H](NC(=O)NC2CCCCC2)[C@@H](CO)O1,inactive: 1
4,O=C(C[C@H]1C[C@@H]2c3cc(NS(=O)(=O)c4ccc(F)cc4)ccc3O[C@@H]2[C@H](CO)O1)NC1CCCC1,inactive: 1.03
5,C[C@@H]1CN([C@H](C)CO)C(=O)c2cccc(NC(=O)Nc3cccc4ccccc34)c2O[C@@H]1CN(C)C(=O)Nc1ccc2c(c1)OCO2,inactive: 0.976
6,C[C@@H]1CCCCO[C@@H](CN(C)C(=O)Nc2cccc3ccccc23)[C@H](C)CN([C@H](C)CO)C(=O)c2cc(NC(=O)Nc3ccc(F)cc3)ccc2O1,inactive: 1.01
7,COC(=O)CC1C(C)(C)C(=O)C2CC3=C4CC(=O)OC(c5ccoc5)C4(C)CCC3C1(C)C2=O (stereo not given),inactive: 1.08
8,C[C@@H]1CN([C@@H](C)CO)C(=O)c2cccc(NC(=O)C3CCOCC3)c2O[C@@H]1CN(C)S(=O)(=O)c1cn(C)cn1,inactive: 1.01
9,C[C@@H]1CCCCO[C@H](CN(C)C(=O)Cc2ccccc2)[C@H](C)CN([C@H](C)CO)C(=O)c2cc(NS(=O)(=O)c3cccs3)ccc2O1,inactive: 0.994
10,COC(=O)[C@H]1c2cc3c(c(O)c2[C@@H](O[C@@H]2O[C@H](C)[C@H](OC)[C@](C)(OC)[C@@H]2OC)C[C@@]1(C)O)C(=O)c1c(O)cc2c(c1C3=O)O[C@H]1O[C@@]2(C)[C@@H](O)[C@H](N(C)C)[C@@H]1O,inactive: 1.03
11,COc1ccc2c3c(n(c2c1)C)[C@H](CO)N(C[C@]13CCN(CC1)C(=O)c1ccccn1)C(=O)c1ccccn1,inactive: 0.97
12,C[C@@H]1CCCCO[C@H](CN(C)Cc2ccccc2)[C@H](C)CN([C@H](C)CO)C(=O)c2cc(NC(=O)C3CCCCC3)ccc2O1,inactive: 0.989
13,O=C(C[C@H]1CC[C@H]2[C@@H](COC[C@@H](O)CN2S(=O)(=O)c2ccccc2Cl)O1)NCCc1ccncc1,inactive: 0.977
14,C[C@@H]1CN([C@@H](C)CO)C(=O)c2cccc(NS(=O)(=O)c3cn(C)cn3)c2O[C@@H]1CN(C)Cc1ccc(C(=O)Nc2ccccc2N)cc1,inactive: 1.02
15,Cc1ccc(S(=O)(=O)N(C)C[C@@H]2OCCCC[C@H](C)Oc3ccc(NC(=O)NC4CCCCC4)cc3C(=O)N([C@H](C)CO)C[C@H]2C)cc1,inactive: 1.01

# From the supplement of paper PMC9446081
